The assay has as its system NCI-H322M lung. The assay can be described thus: NCI-60 cell line screen, 48 h.

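The compound was tested at five concentrations on cells cultured in 96-well plates, with a 48-hour exposure period. Here, GI50 denotes the concentration required for 50% inhibition of growth. TGI: total growth inhibition.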 Some results are limits rather than exact numbers.

As for `CN1CCN(c2ccc(Nc3nc(NCCCNS(=O)(=O)c4cccc5ccccc45)c4sccc4n3)cc2)CC1`, the GI50 is 2.46 µM and the TGI amounted to 7.59 µM.

As for `COc1cc(O)c2c(c1)[C@H]1O[C@@H]1C[C@H](O)[C@H](O)C(=O)/C=C\C[C@H](C)OC2=O`, the GI50 is 13.5 µM and the TGI is more than 33.3 µM.

With `COc1cnc2c(c1)C(=O)c1c-2n(CCCn2ccnc2)c(=O)c2cc(OC)c(OC)cc12`, the GI50 was 1.04 µM and the TGI amounted to 7.63 µM.

Source of the values: PubChem BioAssay (NCI).
